# Hit rate of the full screen: of about 310,000 compounds, about 14,000 (4.5%) showed an effect of 50% or more. The effect is printed as a negative number. The list shows a part of the results.
# Biological target: human ether-à-go-go-related gene (hERG) potassium channel (human, UniProt Q12809)
# Assay: primary screen, population patch clamp on CHO cells stably expressing hERG
# 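Further: peak tail current of the secondary pulse compared with the same well before compound.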
# Chain of human ether-à-go-go-related gene (hERG) potassium channel (Q12809 whole entry, looked up): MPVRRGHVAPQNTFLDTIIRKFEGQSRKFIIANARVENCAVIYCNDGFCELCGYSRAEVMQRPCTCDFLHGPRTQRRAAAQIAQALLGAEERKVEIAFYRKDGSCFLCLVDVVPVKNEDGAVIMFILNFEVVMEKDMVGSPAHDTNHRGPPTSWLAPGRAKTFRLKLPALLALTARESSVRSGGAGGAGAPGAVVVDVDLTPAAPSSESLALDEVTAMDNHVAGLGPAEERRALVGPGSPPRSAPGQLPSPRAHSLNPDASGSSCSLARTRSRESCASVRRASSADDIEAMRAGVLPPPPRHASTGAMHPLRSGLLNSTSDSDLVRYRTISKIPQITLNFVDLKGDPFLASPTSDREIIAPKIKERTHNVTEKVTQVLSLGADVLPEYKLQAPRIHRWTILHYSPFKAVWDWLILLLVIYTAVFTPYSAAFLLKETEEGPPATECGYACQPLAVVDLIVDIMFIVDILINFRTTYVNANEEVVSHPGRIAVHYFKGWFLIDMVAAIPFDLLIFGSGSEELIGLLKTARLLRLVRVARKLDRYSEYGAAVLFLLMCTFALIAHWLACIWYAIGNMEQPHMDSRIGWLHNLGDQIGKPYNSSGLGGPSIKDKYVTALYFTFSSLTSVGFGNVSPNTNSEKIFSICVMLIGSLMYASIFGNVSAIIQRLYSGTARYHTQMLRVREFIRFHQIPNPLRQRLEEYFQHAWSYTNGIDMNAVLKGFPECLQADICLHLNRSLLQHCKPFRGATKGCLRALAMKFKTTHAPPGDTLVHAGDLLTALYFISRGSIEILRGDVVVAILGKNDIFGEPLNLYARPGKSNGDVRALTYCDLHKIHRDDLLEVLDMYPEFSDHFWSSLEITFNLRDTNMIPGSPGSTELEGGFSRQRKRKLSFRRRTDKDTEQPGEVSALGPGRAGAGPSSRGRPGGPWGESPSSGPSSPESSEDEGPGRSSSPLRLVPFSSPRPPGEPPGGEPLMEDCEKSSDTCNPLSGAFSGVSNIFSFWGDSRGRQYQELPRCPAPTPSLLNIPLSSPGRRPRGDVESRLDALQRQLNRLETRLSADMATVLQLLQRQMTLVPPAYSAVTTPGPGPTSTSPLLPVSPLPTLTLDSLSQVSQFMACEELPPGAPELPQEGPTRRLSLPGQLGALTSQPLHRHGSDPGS
row,Compound,"hERG current change (%, negative = inhibition) at 10uM [%]"
1,Cc1c(C(=O)Nc2ccccn2)oc2c(Cl)cccc12,-3.36
2,CCC(C)c1ccc(NC(=S)NC(C)C2CCCO2)cc1 (stereo not drawn),-6.84
3,S=C(Nc1ccc(Br)cc1)N1CCCC1,2.38
4,CCCNC(=O)C(Cc1ccccc1C)NC(=O)c1ccc(C#N)cc1 (stereo not drawn),3.89
5,CCn1nc(C)c(CNC(=O)CC2C(=O)NCCN2CC(C)C)c1C (stereo not drawn),11.7
6,O=C(NCCCN1CCOCC1)c1ccc(CS(=O)(=O)Cc2ccc(Cl)cc2)o1,4.4
7,COc1ccc(C2CC(=O)c3sc(N)nc3C2)cc1 (stereo not drawn),2.43
8,COc1ccc(N2C(N)=NC(N)=NC2(C)C)cc1.Cl,2.62
9,COc1cc(/C=N/N=C(/C(=O)c2ccccc2)c2ccccc2)cc(OC)c1O,2.28
10,Cc1onc(-c2ccccc2Cl)c1C(=O)N1CC(C)CC(C)C1 (stereo not drawn),7.96
11,N#Cc1ccc(C(=O)N2CCN(c3ncccn3)CC2)cc1,-18.3
12,O=C(CSc1ccccc1)NC(=O)NCc1ccccc1,5.87
13,Cc1cc(-c2nnc(SCC(=O)Nc3ccccc3F)n2N)n[nH]1,13.8
14,Cc1ccsc1C(=O)OCC(=O)c1ccc(OC(F)F)cc1,-0.51
15,COc1cc2nc(CN3CCN(S(=O)(=O)c4ccc(C)c(C)c4)CC3)[nH]c(=O)c2cc1OC,-16.8
16,CNC(=S)N(CCO)Cc1cc2cc3c(cc2[nH]c1=O)OCO3,24
17,CC(=O)c1cccc(S(=O)(=O)Nc2c(C)nn(C)c2C)c1,7.46
18,CCS(=O)(=O)C(=C1NCCO1)S(=O)(=O)CC,-10.7
19,COc1ccc(C)cc1NC(=O)NC(C)c1ccncc1 (stereo not drawn),10.2
20,CC1CCCCC1NC(=O)CN1c2cccc3cccc(c23)S1(=O)=O (stereo not drawn),13.2
21,O=C(CN(c1ccc2c(c1)OCCO2)S(=O)(=O)c1ccccc1)N1CCN(Cc2ccccc2)CC1,-34.7
22,Cc1cc(Br)ccc1OCCCCNCCO.O=C(O)C(=O)O,-28.1
23,CC1CCC(C(C)C)C(OC(=O)Cn2c(COc3ccccc3)[n+](C)c3ccccc32)C1.[Cl-] (stereo not drawn),-80.4

row,Compound,"hERG current change (%, negative = inhibition) at 10uM [%]"
1,O=C(CNCc1ccc(Cl)cc1)Nc1ccc2c(c1)OCCO2.O=C(O)C(=O)O,-9.59
2,CCc1noc(C)c1C(=O)OCC(=O)NC(C)c1ccccc1 (stereo not drawn),-12.5
3,CSc1ncccc1C(=O)N1CCCC(Nc2ccc(C)c(C)c2)C1 (stereo not drawn),-4.42
4,O=Nc1c(-c2ccccc2)[nH]n(-c2ccccc2)c1=O,7.97
5,CCCc1cc(=O)n2[nH]c(C)cc2n1,-17.3
6,COc1ccc(N2CCN(C3CCCN(S(=O)(=O)c4ccc(C)cc4C)C3)CC2)cc1 (stereo not drawn),-35.8
7,O=C(Nc1cccc(S(=O)(=O)N2CCOCC2)c1)[C@@H]1CCCN1S(=O)(=O)c1ccc(Cl)cc1,-62.8
8,CCOC(=O)N1CCN(C(=O)c2ccc3c(c2)N(Cc2ccc(F)cc2)CCS3)CC1,-46.3
9,Cc1ccc(Cn2c(=N)c(C(=O)NC3CCCC3)cc3c(=O)n4ccccc4nc32)cc1,-92.7
10,CN(C)CCCN1CC(C(=O)O)CC1=O (stereo not drawn),13.4
11,Cc1ccc(N2C(=O)NC(NC(=O)C(C)(C)C)(C(F)(F)F)C2=O)cc1C (stereo not drawn),0.171
12,CCS(=O)(=O)Nc1c(C(=O)OC)[nH]c2ccccc12,7.76
13,CC1(C)CC(=O)C=C(c2ccc(Oc3ccccc3)cc2)C1,3.74
14,Cc1nnc2ccc(-c3ccc(NS(C)(=O)=O)cc3)nn12,-16
15,Cn1c(=O)n(C)c2cc(N3CCCCC3)c(NC(=O)c3cccc(Cl)c3)cc21,14.8
16,O=c1[nH]c(-c2ccccc2)cs1,-2.38
17,CC1CCCN(CC(=O)Nc2cc(S(=O)(=O)N3CCOCC3)ccc2N2CCCC2)C1 (stereo not drawn),-9.54
18,COC(=O)C1=CN(Cc2ccccc2)C=C(C(=O)OC)C1c1ccc(OC)c(OC)c1,-6.14
19,Cc1[nH]n(-c2ccccc2)c(=S)c1C=Nc1cccc([N+](=O)[O-])c1,7.1
20,CCN(CC)C(=O)/C(=C/c1cccc([N+](=O)[O-])c1)NC(=O)c1ccco1,-25.8
21,CC(=O)c1sc(NC(=O)c2ccccc2C)nc1C,26.2
22,CCOC(=O)c1nnc(-c2ccc(C)cc2)nc1Sc1ccccc1Cl,11
